In the BET-seq Pho4 binding data (Le et al. 2018):
Some of the results follow. These are noisy estimates, calculated here from bound and input reads.

Target: T1, Pho4 (S. cerevisiae) (UniProt P07270)
T1 sequence: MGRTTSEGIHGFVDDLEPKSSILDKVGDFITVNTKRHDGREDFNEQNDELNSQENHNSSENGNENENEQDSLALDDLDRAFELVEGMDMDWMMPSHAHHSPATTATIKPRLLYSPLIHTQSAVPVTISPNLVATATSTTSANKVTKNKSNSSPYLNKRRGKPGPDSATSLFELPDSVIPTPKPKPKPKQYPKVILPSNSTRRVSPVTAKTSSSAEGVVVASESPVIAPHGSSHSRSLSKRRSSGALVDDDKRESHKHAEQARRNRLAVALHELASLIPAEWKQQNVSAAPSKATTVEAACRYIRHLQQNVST
Experiment: relative binding free energy (BET-seq); higher = weaker binding
Conditions: reference: library average

Sequence	relative binding free energy [kcal/mol]
TATTGCACGTGTTTCA	-0.03
TCGTGCACGTGTGGGT	0.06
GTCCTCACGTGTTGTT	0.36
TTATGCACGTGAGCGA	0.09
TAGATCACGTGGGCAT	0.06
GGTGTCACGTGGCTGG	0.13
AAGGTCACGTGTGCGG	0.22
TTTTTCACGTGCGATG	0.25
AAGGACACGTGCTGTA	0.1
ATGATCACGTGAAGGT	0.39
TACGGCACGTGAGGTA	0.1
GTTTTCACGTGCTGGT	0.21
CACGGCACGTGGGTAG	-0.16
GTTTACACGTGCAGGG	0.14
CGTGTCACGTGGCCGG	-0.15
TGTTGCACGTGAGTAT	0.36
AAAAGCACGTGTGGGG	-0.05
AAAGTCACGTGCTGTT	0.15
ATGTGCACGTGCGGAG	-0.03
TACGTCACGTGAGGGA	0.34
GTAGGCACGTGGAGTT	0.02
GTACTCACGTGTGTAT	0.24
GGGGGCACGTGCTAGC	-0.26
GGTTGCACGTGGTCCG	-0.01
TTCGGCACGTGTTGGG	-0.03
GAACTCACGTGTGGGA	0.36

Sequence	relative binding free energy [kcal/mol]
GTGGGCACGTGCGCGG	-0.2
GTGTACACGTGGATTA	0.05
AATGACACGTGAAGGT	0.13
CGGGTCACGTGCTGTG	-0.03
CGTGACACGTGGTAGT	-0.06
GTGTGCACGTGATTCT	0.2
ATAGGCACGTGAAGAG	0
TTGGGCACGTGGCAAG	-0.18
AGTAGCACGTGATGGA	0.04
GGTAGCACGTGTAAAG	0.01
TCGTACACGTGAGTGG	0.27
CTGCTCACGTGTTTTT	0.22
GTGATCACGTGACGTT	0.13
GATGCCACGTGGTTAG	-0.13
TAGGACACGTGTTAGA	0.04
TAGTGCACGTGGCTTG	-0.18
GATGGCACGTGAGCGG	0.16
CAGAGCACGTGGTGTG	-0.21
TGTCTCACGTGTTATA	0.36
AAGTTCACGTGATTAG	0.37
TTAGTCACGTGATGAA	0.26
CTCGGCACGTGGGGTA	-0.24
TGGACCACGTGATGGG	0.11
TGGCGCACGTGGGGTT	-0.25
GGAATCACGTGCTTGT	0.07
GTGGACACGTGGAGTT	0.01

Sequence	relative binding free energy [kcal/mol]
AATTTCACGTGAGAAT	0.37
TTGCTCACGTGTTGCA	0.2
GTTGACACGTGATATG	0.22
GAACGCACGTGGTGGG	-0.03
GTCGGCACGTGCGTGT	-0.11
TGGACCACGTGGGGAT	-0.13
GAGGACACGTGTGCTA	0.27
GGGTGCACGTGGCAAT	-0.07
GGGCGCACGTGAAGGT	0.13
CAAGGCACGTGGTGTT	-0.15
TCTATCACGTGTGGTT	0.18
GATTACACGTGGGTTT	0.09
TTGAGCACGTGGATCT	-0.01
GGCTACACGTGGGAGG	0.19
TGAAGCACGTGACGGG	-0.04
TGCGGCACGTGCGTGG	-0.11
CTTGACACGTGGTATG	-0.09
TGGTTCACGTGATAAA	0.48
TGATACACGTGAGTTT	0.2
ATTGGCACGTGGTTGT	-0.19
AGTGGCACGTGTAAAT	-0.03
GGTGTCACGTGAATAC	0.49
TGGTGCACGTGCTTTC	0
TTAAACACGTGGATAG	0.1
TTTGTCACGTGTGTCT	0.19
TAGGGCACGTGGCGTC	-0.14

Sequence	relative binding free energy [kcal/mol]
GGGGACACGTGTTGAT	0.05
TAGGGCACGTGTAGTG	-0.08
GGTAACACGTGTTCGG	0.15
ACGTACACGTGGGTGT	-0.03
GTGTGCACGTGTTGCA	-0.19
AGTGGCACGTGGTCTG	-0.16
TGCGCCACGTGTTTGG	-0.15
AGGCGCACGTGGATGT	-0.09
GGTGGCACGTGTTAGA	-0.09
TAGATCACGTGTTATT	0.24
TAGAACACGTGTTGTT	0.11
GGAGACACGTGGTTTA	-0.03
AGGATCACGTGTTCGG	0.16
GGTGGCACGTGGGTGG	-0.14
TTAATCACGTGGTTTT	0.14
GAATTCACGTGGGCTG	0.3
TAAAACACGTGTGTTT	-0.08
GTTGTCACGTGCAGAA	0.19
TGTGTCACGTGGGGTT	0.07
GGTTACACGTGGGTAC	0.09
AATTACACGTGGTGGG	0.18
TAAGTCACGTGTAATG	0.08
ATTTGCACGTGGTAGA	-0.03
TGTCACACGTGGTTTG	-0.03
ATAAGCACGTGAAAGT	0.19
GGAGGCACGTGCGGGC	-0.08

Sequence	relative binding free energy [kcal/mol]
GTATGCACGTGGCATC	0.15
AAGATCACGTGTTGTT	0.11
AGCTTCACGTGCTGGT	0.16
TAGGTCACGTGGCGTT	0
AGTTACACGTGTCGTT	0.14
TTGGACACGTGCGAGG	-0.12
GTGGACACGTGATGCT	0.08
CGGGGCACGTGAGGAG	0.17
TGTGTCACGTGGCCTG	-0.11
TTACACACGTGATGGG	0
AGAGACACGTGGTCGT	-0.03
GGCTGCACGTGGTATT	0.02
ACTTGCACGTGATGTT	0.2
GGTCTCACGTGTGGTG	0.32
GATTCCACGTGTTAGG	0.16
TATTTCACGTGTGTGC	0.26
TGGATCACGTGACGGT	0.24
AACTTCACGTGCGGGG	0.27
GAGGTCACGTGTGTCG	0.19
AGTGGCACGTGGTAGC	-0.24
TCTTTCACGTGGGTGC	0.11
GGGGGCACGTGATTGG	0.12
GGGGGCACGTGGGGTA	-0.16
TTCAACACGTGTGTTA	0.01
GTGTGCACGTGTGTCC	0.11
TTATGCACGTGAGAGT	0.09

Sequence	relative binding free energy [kcal/mol]
GTGTGCACGTGTGGCC	0.07
AGTGGCACGTGACTGG	0.05
TGGAGCACGTGGAAAG	0.09
TGGGGCACGTGTATGA	-0.15
AGTTGCACGTGAGGTA	0.26
AGTGTCACGTGACGTC	0.24
TGACTCACGTGGAGTG	0.18
ATCATCACGTGATATT	0.28
AGTGGCACGTGATAAA	0.05
GAGTTCACGTGACTTT	0.48
TACGTCACGTGTGATT	0.16
AGTTTCACGTGGTAGA	0.39
TAATTCACGTGTGGGG	0.27
AGTCACACGTGGGTAG	-0.13
GAGGTCACGTGAGTCG	0.54
CGGATCACGTGGGGTC	0.08
GGGGACACGTGCAGGT	-0.08
TGGAGCACGTGCCTTG	-0.03
TGTGGCACGTGGTCGT	-0.23
ATGTCCACGTGTGGTG	0.02
GAGTCCACGTGGGGGT	-0.05
AGGTACACGTGTGGGC	0.26
TAGTTCACGTGGTTCA	0.36
TTTCGCACGTGGGGCT	-0.09
TAATGCACGTGGAGGA	-0.11
GCTGGCACGTGGGTGA	-0.19

Sequence	relative binding free energy [kcal/mol]
CTGTACACGTGGGTTG	-0.21
GGGGCCACGTGTGTGT	-0.06
GGCAACACGTGGTCGG	0.07
ACTTGCACGTGGTATT	-0.09
ATTCTCACGTGGAGTA	0.19
TAGGTCACGTGGTGGC	0.12
GTAATCACGTGCTTTG	0.14
CTAGGCACGTGAAAGG	0.2
GATTGCACGTGTTGTT	0.12
TAGGGCACGTGGATCG	-0.15
TACGTCACGTGAGTGG	0.25
AGGTACACGTGTGTAG	0.18
TTAAGCACGTGTTAGT	-0.06
TATGTCACGTGTATCA	0.13
TGTTACACGTGTTGCG	0.2
TTGGCCACGTGTTGTG	-0.02
GGGTACACGTGCTATG	0.03
AATCGCACGTGTGTGT	-0.01
TAGAGCACGTGGCATG	-0.18
ATCGTCACGTGATGTT	0.24
GTGGCCACGTGGTGCG	-0.09
GATTGCACGTGGGCTT	-0.02
CGTAGCACGTGGGGGT	-0.17
AACTTCACGTGAGGTA	0.56
TTGGGCACGTGACGAG	-0.03
TTAGACACGTGGTGAG	0.02

Sequence	relative binding free energy [kcal/mol]
TTGGTCACGTGGTGTG	0.03
TGATCCACGTGGGTTG	-0.16
ACCTGCACGTGGGTGT	-0.24
TACGGCACGTGGGCAG	-0.21
TGCGGCACGTGTGTGA	-0.14
GAATTCACGTGGGGCG	0.24
GGGGACACGTGTGTAA	0.02
GGGTGCACGTGCGTGG	-0.04
TCTGTCACGTGATAGG	0.16
TGTTGCACGTGGTAGG	0.04
TGGGGCACGTGTCCGG	-0.1
CATATCACGTGGGTGT	-0.19
TAGCGCACGTGGGGCG	-0.23
GTCGACACGTGGTAGG	0.08
TAGAGCACGTGGTCTG	-0.13
GGGTACACGTGTGTGA	0.07
TGTTACACGTGTTCAG	0.24
ATCGTCACGTGCGTGA	0.13
GTTGGCACGTGGGAGA	-0.18
TGTTTCACGTGATGTA	0.31
ATTGTCACGTGAGCTA	0.29
GAAGTCACGTGGGGGA	-0.07
GGCGTCACGTGCAAGG	0.2
TGTAGCACGTGAAGTA	0.26
CTTTACACGTGGTTGT	0.04
CTATTCACGTGGGGTG	0.05

Sequence	relative binding free energy [kcal/mol]
AGTTGCACGTGTCGGA	0.12
ATATGCACGTGTATGT	-0.03
GTAGGCACGTGGGTTC	-0.21
GGGCACACGTGGTGGG	0.04
TGGCGCACGTGTAGGG	0.01
TCGGACACGTGAGGGA	0.17
TGGGTCACGTGTAGGG	0.16
TGGTACACGTGTTTGT	0.07
AATGGCACGTGTTTTT	0.03
TATTACACGTGGGGCA	-0.03
CGTTCCACGTGGGGAG	-0.16
TGATTCACGTGAAATT	0.36
TGAGTCACGTGTGCAG	0.1
CGTAGCACGTGGGAGG	-0.2
GTTTGCACGTGATTCA	0.02
GTGGTCACGTGTGGCT	0.17
TTAGGCACGTGGGAAT	0
AGTGACACGTGGTGGT	-0.05
AGAGGCACGTGATTGA	0.02
TCACACACGTGGGGGG	-0.1
TGTGACACGTGGAAAG	0.17
GGTAGCACGTGGGAGT	-0.16
